# Experimental data reported in PubChem BioAssay (Tox21).
# Records with an inconclusive call do not appear. Unless noted, calls follow the shape of the dose curve; as a rule, active = well fitted curve in the direction sought with a large enough effect in the repeat runs; inconclusive = weak or mixed curves; inactive = no such curve, though single readings can be large; an effect the other way counts as inactive or inconclusive. A structure can be active in one record and inactive in another. Certain results were filed several times, with different values. This is not the full list of results. The source may hold further records. Values that stand side by side repeat one measurement in other runs, samples, wells, individuals or studies. Records carry a tag for their origin. A, B and so on number the origins entry by entry.
# What was measured:
# [1] = qHTS assay for small molecules that induce genotoxicity in human embryonic kidney cells expressing luciferase-tagged ATAD5 - cell viability (AID 651634; calls by dose curve; also: nearly all actives have a fitted effect of over 25% in size)
# Excerpt: (§1) National Center for Advancing Translational Sciences [NCATS]
# (§2) NIH Chemical Genomics Center [NCGC]
# (§3) U.S. Environmental Protection Agency [EPA]
# (§4) National Institutes of Environmental Health Sciences [NIEHS]
# (§5) National Toxicology Program [NTP]
# U.S. Food and Drug Administration [FDA]
# Enhanced Level of Genome Instability Gene 1 (ELG1; human ATAD5) protein levels increase in response to various types of DNA damage. Using a luciferase reporter-gene tagged with ElG1, a cell-based assay [developed by Kyungjae Myung, NHGRI, NIH] was used to measure the induction of ATAD5 in human embryonic kidney cells (HEK293T). So, increase in luciferase activity can be used to identify the compounds that cause genetic stress. In addition to genotoxicity, these cells were also used to test for cytotoxicity by measuring the protease activity within live cells.
# Tox21 Assay Protocol Summary:
# For cytotoxicity screening, 2,000 cells in 5 uL/well were dispensed into white, solid-bottom 1536-well plates using a Multidrop Combi (Thermo Scientific) dispenser. Following transfer of 23 nL compound or DMSO vehicle by a pin tool, the plates were incubated 15.5 hr at 37C and 5% CO2. 1 ul CellTiter-Fluor reagent (Promega, Madison, WI) was then added to each plate and following 30 min incubation at 37C, fluorescence intensity was quantified on a ViewLux CCD-based plate reader.
# [2] = qHTS assay to identify small molecule antagonists of the glucocorticoid receptor (GR) signaling pathway - cell viability counter screen (AID 720693); also: nearly all actives have a fitted effect of over 55% in size
# [3] = qHTS assay to identify small molecule antagonists of the thyroid receptor (TR) signaling pathway (AID 743065); also: nearly all actives have a fitted effect of over 55% in size
# Method in brief: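 GH3.TRE-Luc rat pituitary cells (two TREs driving luciferase) were dosed with compound, then stimulated with 1 nM T3 (final) for 23.5 h at 37 C. ONE-Glo luminescence was the read-out, with CellTiter-Fluor fluorescence as the cytotoxicity counter-screen.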
# [4] = A CellTox Green Cytotoxicity Assay to monitor cytotoxicity in HEK293 cells - 24 hour (AID 1224875); also: nearly all actives have a fitted effect of over 45% in size
# Method in brief: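 Cells (HEK293, 600/well) and dye reagent are dispensed together. After 5 h at 37 C, 23 nL compound is pinned in. Plates stay at 37 C for 40 h with fluorescence read at 0h, 8h, 16h, 24h, 32h and 40h.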
# [5] = A CellTox Green Cytotoxicity Assay to monitor cytotoxicity in HEK293 cells - 16 hour (AID 1224888); also: nearly all actives have a fitted effect of over 35% in size
# Excerpt: as §1, §2, §3, §4, §5
# Cell-based models are critical for drug discovery. Determining the natural cytotoxic effects resulting from test compounds is an essential research activity. A CellTox Green Cytotoxicity Assay to monitor cytotoxicity in real time of continues cell culture during 40 hours of the compound treatment was used to screen Tox21 10K library compounds in Hek293 cells. CellTox Green Cytotoxicity Assay is a nonlytic, homogeneous, biofluorescent method to measure cytotoxicity in cell culture after experimental manipulation. The assay system uses a proprietary asymmetric cyanine dye that is excluded from viable cells but preferentially stains the dead cell's DNA. […] Viable cells produce no appreciable increases in fluorescence. Therefore, the fluorescence signal produced by the binding interaction with dead cell DNA is proportional to cytotoxicity.
# The mixture of Hek293 cell suspension and reagents were dispensed at 600cells/6 ul/well in 1536-well tissue culture treated black solid bottom plates using a Multidrop dispenser. […] The fluorescence intensity were measured at 0h, 8h, 16h, 24h, 32h and 40h time points using ViewLux plate reader during compound treatment.
# [6] = qHTS assay to identify small molecule antagonists of the progesterone receptor (PR) signaling pathway - cell viability counter screen (AID 1346798); also: nearly all actives have a fitted effect of over 50% in size
# Method in brief: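 Cytotoxicity read as CellTiter-Glo luminescence (30 min, room temperature) in the same wells as the beta-lactamase readout. HEK293T PR-UAS-bla cells in charcoal-stripped 2% FBS received compound and R5020, then 16 h at 37C, 5% CO2.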
# [7] = qHTS assay to identify small molecule antagonists of the TGF-beta/Smad signaling pathway - cell viability counter screen (AID 1346824); also: nearly all actives have a fitted effect of over 50% in size
# Method in brief: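 SBE-bla HEK 293T cells, incubated overnight, then compound plus 0.25 ng/mL TGF-beta1 (stock added) for 5 hr at 37 C. Viability was read in the same wells by CellTiter-Glo luminescence after 30 min at room temperature.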
# Potency is read from the fitted curve at half-maximal effect.
structure (smiles),measurement,setting,value
NNc1ccccc1,Potency,[1],inactive [sample A] and active: 2.43 µM [sample B] and active: 9.69 µM [sample C]
CCOP(=S)(OCC)Oc1cc(C)nc(C(C)C)n1,Potency,[2],inactive [sample A] and inactive [sample B] and active: 43.6 µM [sample C]
same,Potency,[3],inactive [sample A] and inactive [sample B] and active: 17.2 µM [sample C]
Clc1cnc(Oc2ccc(Oc3ncc(Cl)cc3Cl)cc2)c(Cl)c1,Potency,[4],inactive [sample A] and active: 27.5 µM [sample B]
same,Potency,[5],inactive [sample A] and active: 27.5 µM [sample B]
CC(C)c1cccc(C(C)C)c1O,Potency,[4],active: 21.8 µM [sample A] and active: 43.6 µM [sample B] and inactive [sample C]
same,Potency,[5],active: 24.5 µM [sample A] and active: 43.6 µM [sample B] and inactive [sample C]
C=C(C)C(=O)OCC(CC)CCCC (stereo not given),Potency,[6],active: 49.5 µM [sample A] and inactive [sample B]
C=CCN=C=S,Potency,[6],active: 49.6 µM [sample A] and inactive [sample B]
CNC(=O)O/N=C/C(C)(C)S(C)=O (stereo not given),Potency,[7],active: 17.6 µM [sample A] and inactive [sample B]
